The values that follow come from the supplement of paper PMC7125110.

± gives the standard error. This sample is rich in variants without activity. Some results are limits rather than exact numbers.

B1: glmS ribozyme (parent)
chain: AUAAAAGCGCCAGAACUACAGAAAUGUAGUUGACGAGGAGGAGGUUUAUCGAAUUUUCGGCGGAUGCCUCCAAA

What all share (settings): with glucosamine-6-phosphate
Variants of B1 are the subject of series [1]. Briefly: self-cleavage kobs at 40 uM GlcN6P; higher = faster cleavage; RNA array. An outline of the steps:
(§1)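 Glucosamine-6-phosphate, from 40 μM to 10 mM in HEPES/KCl/Mg(OAc)2 buffer, was flowed over sequenced MiSeq chips carrying barcoded ribozyme variants transcribed in situ by E. coli RNA polymerase. A hybridised Cy3 probe tracked the variants at 37 °C as tiles were imaged over ~14 h. kobs, kcat and KM were obtained by fitting normalised per-tile medians to exponential decays and then applying weighted Michaelis–Menten fits across concentrations.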

In series [2] the parent is B1. The series can be described thus: self-cleavage kobs at 640 uM GlcN6P; higher = faster cleavage; RNA array. An outline of the steps:
as §1

In series [3] the parent is B1. The series can be described thus: self-cleavage kobs at 160 uM GlcN6P; higher = faster cleavage; RNA array. An outline of the steps: as §1
Series [4] covers variants of B1. Briefly: self-cleavage kobs at 2500 uM GlcN6P; higher = faster cleavage; RNA array. The method in brief:
as §1

Variants of B1 are the subject of series [5]. Briefly: self-cleavage kobs at 10000 uM GlcN6P; higher = faster cleavage; RNA array. The method in brief: as §1

AUAAAAGCGCCAGAACUACAGAAAUGUAGUUGACGAGGAGGAGGUUUAUUGAAUUUUCGGCGGAAGCCUCCAAA [C50U U65A]: the “self-cleavage kobs at 40 uM GlcN6P” value in series [1] was below 1e-05 s⁻¹. Besides, in series [2], the “self-cleavage kobs at 640 uM GlcN6P” value was below 1e-05 s⁻¹. The “self-cleavage kobs at 160 uM GlcN6P” value in series [3] was below 1e-05 s⁻¹.
AUAAAAGCGCCAGAACUACAGAAAUGUAGUUGACGAGGAGGAGGUUUAUGGAAUUUACGGCGUUUGCCUCCAAA [C50G U57A G63U A64U]: the “self-cleavage kobs at 40 uM GlcN6P” value in series [1] was 7.9e-05 ± 2.7e-05 s⁻¹.
AUAAAAGCGCCAGAACUACAGAAAUGUAGUUGACGAGGAGGAGGUUUAGCGGAUUUUCGGCGGAAGCAUCCAAA [U49G A52G U65A C68A]: the “self-cleavage kobs at 40 uM GlcN6P” value in series [1] was below 1e-05 s⁻¹.
As to AUAAAAGCGCCAGAACUACAGAAAUGUAGUUGACGAGGAGGAGGUUUAUGGAAUUUUCGGCGGAUGCCUAGAAA [C50G C70A C71G], the “self-cleavage kobs at 40 uM GlcN6P” value in series [1] is 7.15e-05 ± 1.7e-05 s⁻¹.
Take AUAAAAGCGCCAGAACUACAGAAAUGUAGUUGACGAGGAGGAGGUUUAUUAAAUUUUCGGCGGAAGCCUCCAAA [C50U G51A U65A]: the “self-cleavage kobs at 40 uM GlcN6P” value in series [1] is below 1e-05 s⁻¹. Besides, in series [4], the “self-cleavage kobs at 2500 uM GlcN6P” value is below 1e-05 s⁻¹.
As for AUAAAAGCGCCAGAACUACAGAAAUGUAGUUGACGAGGAGGAGGUUUAUUGAACUUUCGGCGGAUGCCUCCAAA [C50U U54C], the “self-cleavage kobs at 40 uM GlcN6P” value in series [1] is below 1e-05 s⁻¹.
On the same count and under the same terms, then AUAAAAGCGCCAGAACUACAGAAAUGUAGUUGACGAGGAGGAGGUUUAUGGAAUUUUCCGCGGAUGGCUCCAAA [C50G G59C C67G], with 0.00018 ± 5.4e-05 s⁻¹.
As to AUAAAAGCGCCAGAACUACAGAAAUGUAGUUGACGAGGAGGAGGUUUAUUGAAUUUUCGUCGGAUGCCUCCAAA [C50U G60U], the “self-cleavage kobs at 40 uM GlcN6P” value in series [1] is below 1e-05 s⁻¹. Also, in series [2], the “self-cleavage kobs at 640 uM GlcN6P” value was below 1e-05 s⁻¹. The “self-cleavage kobs at 160 uM GlcN6P” value in series [3] was below 1e-05 s⁻¹. In addition, the “self-cleavage kobs at 2500 uM GlcN6P” value in series [4] is below 1e-05 s⁻¹. In addition, the “self-cleavage kobs at 10000 uM GlcN6P” value in series [5] is below 1e-05 s⁻¹.
As to AUAAAAGCGCCAGAACUACAGAAAUGUAGUUGACGAGGAGGAGGUUUAUUGAAUUUUAGGCGAAUGCCUCCAAA [C50U C58A G63A], the “self-cleavage kobs at 40 uM GlcN6P” value in series [1] was below 1e-05 s⁻¹. For the same variant, the “self-cleavage kobs at 10000 uM GlcN6P” value in series [5] is below 1e-05 s⁻¹.
Take AUAAAAGCGCCAGAACUACAGAAAUGUAGUUGACGAGGAGGAGGUUUAUAGAAUAUUCGGCGGAUGCCUCCAAA [C50A U55A]: the “self-cleavage kobs at 40 uM GlcN6P” value in series [1] was below 1e-05 s⁻¹. Moreover, the “self-cleavage kobs at 640 uM GlcN6P” value in series [2] was below 1e-05 s⁻¹.
As for AUAAAAGCGCCAGAACUACAGAAAUGUAGUUGACGAGGAGGAGGUUUACCGAAUUUUCUGCGGAUGUCUCCAAA [U49C G59U C67U], in series [1], the “self-cleavage kobs at 40 uM GlcN6P” value was below 1e-05 s⁻¹.
As for AUAAAAGCGCCAGAACUACAGAAAUGUAGUUGACGAGGAGGAGGUUUACCGAAUUUUCGGCCGAUGCCUCCAAA [U49C G62C], the “self-cleavage kobs at 40 uM GlcN6P” value in series [1] is below 1e-05 s⁻¹. Besides, in series [2], the “self-cleavage kobs at 640 uM GlcN6P” value is below 1e-05 s⁻¹. Moreover, in series [4], the “self-cleavage kobs at 2500 uM GlcN6P” value is below 1e-05 s⁻¹.
With AUAAAAGCGCCAGAACUACAGAAAUGUAGUUGACGAGGAGGAGGUUUAUAGAAUUUUCGGCGGAUGCGUCCAAA [C50A C68G], the “self-cleavage kobs at 40 uM GlcN6P” value in series [1] worked out at 2.54e-05 ± 1e-05 s⁻¹.
With AUAAAAGCGCCAGAACUACAGAAAUGUAGUUGACGAGGAGGAGGUUUAUAGAAUUCUCGGCGGAUGCCUCCAAA [C50A U56C], in series [1], the “self-cleavage kobs at 40 uM GlcN6P” value was below 1e-05 s⁻¹. The “self-cleavage kobs at 640 uM GlcN6P” value in series [2] is below 1e-05 s⁻¹. Also, the “self-cleavage kobs at 10000 uM GlcN6P” value in series [5] is below 1e-05 s⁻¹.
As for AUAAAAGCGCCAGAACUACAGAAAUGUAGUUGACGAGGAGGAGGUUUAUCAAAUUUUCGGCGGAUGGCUCCAAA [G51A C67G], the “self-cleavage kobs at 40 uM GlcN6P” value in series [1] was below 1e-05 s⁻¹. The “self-cleavage kobs at 10000 uM GlcN6P” value in series [5] is below 1e-05 s⁻¹.
On to AUAAAAGCGCCAGAACUACAGAAAUGUAGUUGACGAGGAGGAGGUUUAUCAAAUUUUCGGCGGAUGUCUCCAAA [G51A C67U], for which the “self-cleavage kobs at 40 uM GlcN6P” value in series [1] was below 1e-05 s⁻¹.
For the variant AUAAAAGCGCCAGAACUACAGAAAUGUAGUUGACGAGGAGGAGGUUUAUAGAAUUUGCGGCGGAUGCCUCCAAA [C50A U57G], in series [1], the “self-cleavage kobs at 40 uM GlcN6P” value is below 1e-05 s⁻¹. For the same variant, the “self-cleavage kobs at 10000 uM GlcN6P” value in series [5] is below 1e-05 s⁻¹.
As to AUAAAAGCGCCAGAACUACAGAAAUGUAGUUGACGAGGAGGAGGUUUAUAGAAUUUUCGGCGGUUGCCUCCAAA [C50A A64U], the “self-cleavage kobs at 40 uM GlcN6P” value in series [1] is below 1e-05 s⁻¹. In addition, the “self-cleavage kobs at 640 uM GlcN6P” value in series [2] is below 1e-05 s⁻¹. The “self-cleavage kobs at 10000 uM GlcN6P” value in series [5] was below 1e-05 s⁻¹.
For AUAAAAGCGCCAGAACUACAGAAAUGUAGUUGACGAGGAGGAGGUUUAUGGAAUUUUCGGCGGAUGCCUCUAAA [C50G C71U], the “self-cleavage kobs at 40 uM GlcN6P” value in series [1] came out at 6.9e-05 ± 9.9e-06 s⁻¹. The “self-cleavage kobs at 640 uM GlcN6P” value in series [2] was 0.000194 ± 2.7e-05 s⁻¹. Besides, in series [3], the “self-cleavage kobs at 160 uM GlcN6P” value amounted to 0.000107 ± 1e-05 s⁻¹.
